Values joined by “and” are separate entries in the source; they are usually repeats but may differ in a detail not shown here. Equal values may be shown once. Out of some 220,000 compounds screened, about 16,000 (7.3%) were called active. Inconclusive means that the source gave no clear call. Such entries were picked first, then a sample of the others. Calls come from the whole dose curve; as a rule, active = well fitted inhibition curve with a large enough effect (not every such curve was filed as active); inconclusive = small, poorly fitted or top-dose-only effect, or another doubt; inactive = no such curve, though single readings can be large or run the other way. Potencies beside an inconclusive call are fits to weak or partial responses and may not hold up.
biological target: Aldehyde dehydrogenase 1A1 (Homo sapiens) (UniProt P00352); assay: qHTS Assay for Inhibitors of Aldehyde Dehydrogenase 1 (ALDH1A1); conditions: Purified ALDH1A1, NADH fluorescence, propionaldehyde substrate; series mostly up to 75.3 µM; activity, negative = inhibition: at the top concentration;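 for activity, negative = inhibition: plate controls were no enzyme wells and a reference inhibitor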
Chain of UniProt P00352 (P00352 whole entry, looked up): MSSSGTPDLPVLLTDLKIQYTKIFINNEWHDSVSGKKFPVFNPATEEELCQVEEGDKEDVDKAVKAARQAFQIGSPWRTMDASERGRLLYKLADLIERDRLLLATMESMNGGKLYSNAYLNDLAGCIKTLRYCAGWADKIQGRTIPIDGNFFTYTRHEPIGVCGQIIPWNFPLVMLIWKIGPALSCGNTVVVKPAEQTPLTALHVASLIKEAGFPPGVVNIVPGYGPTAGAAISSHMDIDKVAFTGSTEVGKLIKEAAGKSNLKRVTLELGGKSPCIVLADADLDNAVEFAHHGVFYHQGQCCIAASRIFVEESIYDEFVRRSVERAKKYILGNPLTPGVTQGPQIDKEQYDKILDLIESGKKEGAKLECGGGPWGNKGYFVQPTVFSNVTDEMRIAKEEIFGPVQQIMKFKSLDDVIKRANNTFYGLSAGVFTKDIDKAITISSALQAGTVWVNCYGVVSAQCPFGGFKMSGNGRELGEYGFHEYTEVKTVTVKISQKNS
Potency is the fitted concentration of half-maximal effect; tags give direction and shape of the fitted curve.

SMILES | Potency | activity, negative = inhibition
CC1CCCCN1C(=O)c1ccccc1OC1CCN(S(C)(=O)=O)CC1 (stereo not drawn) | inconclusive: 35.5 µM [inhibitor, single point] | –
O=C1CC(NNc2ccccc2)C(=O)N1c1ccc(N2CCCCC2)cc1 (stereo not drawn) | inconclusive: 10 µM [inhibitor, partial curve] | –
Cc1cccnc1NC(=S)Nc1ncccc1C | – | inactive: -1.16%
CC1Cc2ccccc2N1C(=O)c1cnc2ccccn2c1=O (stereo not drawn) | inconclusive: 39.8 µM [inhibitor, single point] | –
CCn1c(COc2cccc3ccccc23)nnc1SCC(=O)OC1CCCCC1 | inconclusive: 20 µM [inhibitor, partial curve] | –
CCOc1c(C)cc(-c2ncccc2O)cc1C | inconclusive: 28.2 µM [inhibitor, partial curve] and inconclusive: 39.8 µM [inhibitor, single point] | –
Nc1ncnc2c1[nH]c(=O)n2C1OC(CO)C(O)C1O (stereo not drawn) | – | inactive: 5.61%
CCCN1CCN(c2ncnc3c2nnn3Cc2ccccc2)CC1 | active: 10 µM | –
CC1CC(C)CN(C(=O)Cc2c(C(=O)O)[nH]c3ccc(Cl)cc23)C1 (stereo not drawn) | – | inactive: 4.42%
CN(C)CC(C)(C)CNC(=O)c1cc(Br)cc(Br)c1O | – | inactive: -13.5%
COC(=O)C1=C(C)N(c2ccc(C(=O)OC)cc2)C(=O)C1 | inconclusive: 0.355 µM [inhibitor, full curve, poor fit] | –
CCCC(=O)OCC(=O)NC1CCCc2ccccc21 (stereo not drawn) | inconclusive: 39.8 µM [inhibitor, single point] | –
CC(OC(=O)c1ccc(F)cc1)C(=O)Nc1nc(-c2cccc([N+](=O)[O-])c2)cs1 (stereo not drawn) | – | inactive: -2.88%
COC(=O)c1c([N+](=O)[O-])c(OC)c(OC)c(OC)c1[N+](=O)[O-] | – | inactive: -9.29%
Cc1ccc(NC2(C#N)C(=O)Nc3ccccc32)cc1 (stereo not drawn) | inconclusive: 25.1 µM [inhibitor, partial curve] | –
COCC(=O)N1CCC2(CC1)CCN(C(=O)NC(C)C)CC2 | inconclusive: 39.8 µM [inhibitor, single point] | –
CN(C)/C=C(\C(=O)c1ccc(F)cc1F)c1nnnn1-c1ccccc1 | inconclusive: 39.8 µM [inhibitor, single point] | –
O=c1c2ccccc2nnn1CSc1nc2ccccc2c(=O)n1CCCO | inconclusive: 35.5 µM [inhibitor, partial curve] | –
COc1cc(/C=N/Nc2ccc(F)cc2F)cc(OC)c1O | inconclusive: 39.8 µM [inhibitor, single point] | –
COc1cccc(NC(=O)CN(c2ccc3c(c2)OCO3)S(C)(=O)=O)c1 | – | inactive: 4.56%
C=CCn1c(CSc2nc3ccccc3s2)n[nH]c1=S | active: 11.2 µM | –
COc1ccccc1C1c2[nH]c3ccccc3c2CCN1Cc1cnc(C)s1 (stereo not drawn) | inconclusive: 39.8 µM [inhibitor, single point] | –
CC(=O)Nc1ccc(NC(=O)c2ccc(-n3c(C)ccc3C)cc2)cc1 | active: 22.4 µM | –
O=C(CSc1nc(-c2ccco2)cc(C(F)(F)F)n1)NCc1cccs1 | – | inactive: -0.0855%
CCN(CC)S(=O)(=O)c1ccc(OC)c(NC(=O)c2cccc(C)c2[N+](=O)[O-])c1 | active: 5.62 µM | –

SMILES | Potency | activity, negative = inhibition
CCCN(Cc1ccccc1)C(=S)Nc1ccc(C(C)=O)cc1 | inconclusive: 31.6 µM [inhibitor, single point] | –
CCOC(=O)N1CCN(C(=O)Cn2ccc3c(OC)cccc3c2=O)CC1 | inconclusive: 31.6 µM [inhibitor, partial curve] | –
N#C/C(=C\c1ccc(O)c(Br)c1)C(=O)NCc1ccccc1 | inconclusive: 8.91 µM [inhibitor, partial curve, poor fit] | –
CCOC(=O)c1cnc2c(-c3ccc(F)cc3)cnn2c1C(F)(F)F | inconclusive: 22.4 µM [inhibitor, partial curve] | –
COc1ccc2[nH]c(=O)c(CNC3CCCCC3)cc2c1 | inconclusive: 4.47 µM [inhibitor, full curve] | –
O=C(NCCc1ccccc1)C1CCN(S(=O)(=O)c2ccc(-n3cnnn3)cc2)CC1 | active: 14.1 µM | –
CC(C)CN1CC[C@@]2(CCCN(S(=O)(=O)c3ccccc3)C2)C1 | – | inactive: -3.69%
Cc1ccc(S(=O)(=O)Nc2ccc(NC(=O)c3cccnc3)cc2)cc1 | active: 14.1 µM | –
N#CC(C#N)=C(N)/C(C#N)=C/c1cc(O)c(O)c(O)c1 | inconclusive: 35.5 µM [inhibitor, single point] | –
O=C(Nc1nnc(Cc2ccc(Cl)cc2)s1)c1cccnc1 | – | inactive: -0.189%
COCCNC(=S)Nc1ccc2[nH]c(=O)[nH]c2c1 | active: 25.1 µM | –
C#CC(=O)N(c1cccc(OC)c1)C(C(=O)NC1CCCC1)c1cccs1 (stereo not drawn) | active: 15.8 µM | –
CCN(CC(=O)NCCc1ccc(Cl)cc1)Cc1nc2ccccc2c(=O)[nH]1 | – | inactive: -4.96%
COC(=O)C1=C(C)N(C)C(=O)NC1c1cc2c(cc1[N+](=O)[O-])OCO2 (stereo not drawn) | – | inactive: -5.26%
Cc1ccc(-c2nc3cnccn3c2Nc2c(C)cccc2C)o1 | inconclusive: 15.8 µM [inhibitor, partial curve] | –
O=c1oc(-c2cccs2)nc2ccc(Br)cc12 | inconclusive: 39.8 µM [inhibitor, single point] | –
CCSc1nnc(NC(=O)CSc2ncccn2)s1 | inconclusive: 39.8 µM [inhibitor, single point] | –
O=C(c1ccccc1)c1ccccc1C(=O)N1CCOCC1 | – | inactive: 5.55%
Cc1c(Cc2ccccc2)sc(NC(=O)/C=C/c2cccc3ccccc23)c1C(N)=O | inconclusive: 39.8 µM [inhibitor, single point] | –
O=C(C1=C[C@@H]2[C@H]3C(=O)N(c4cccc(Cl)c4)C(=O)[C@H]3[C@@H](C(=O)c3ccc(Cl)cc3)N2C=C1)c1ccccc1 | inconclusive: 39.8 µM [inhibitor, single point] | –
CCn1c2ccccc2c2cc(NC(=O)N3CCOCC3)ccc21 | inconclusive: 28.2 µM [inhibitor, partial curve] | –
CCOC(=O)c1c(C)[nH]c(C(=O)COC(=O)COc2ccccc2C=O)c1C | inconclusive: 22.4 µM [inhibitor, partial curve] | –
COc1cc(/C=C/C(=O)O)cc(S(=O)(=O)NCCCC(=O)O)c1OC | inconclusive: 35.5 µM [inhibitor, partial curve] | –
CCC(C)NC(=O)CN(c1ccc(OC)cc1)S(=O)(=O)c1ccc(NC(C)=O)cc1 (stereo not drawn) | inconclusive: 39.8 µM [inhibitor, single point] | –
COCc1cc(C)nc2sc(C(=O)OC(C)C)c(N)c12 | inconclusive: 35.5 µM [inhibitor, single point] | –

SMILES | Potency | activity, negative = inhibition
O=C(Nc1ccccc1OC(=O)c1ccc(Cl)cc1)c1ccc(Cl)cc1 | – | inactive: 10.6%
COc1cccc(C(=O)NCC2CCN(c3ccc(S(=O)(=O)N4CCOCC4)cc3)CC2)c1 | inconclusive: 35.5 µM [inhibitor, single point] | –
CCn1c2ccccc2c2nnc(SCc3ccc(C(=O)OC)o3)nc21 | inconclusive: 31.6 µM [inhibitor, partial curve] | –
CCOC(=O)N1CCN(S(=O)(=O)c2ccc(C(=O)Nc3sc4c(c3C#N)CCC4)cc2)CC1 | inconclusive: 39.8 µM [inhibitor, single point] | –
c1cc2c(cc1C1CCCCC1)c1c3n2CCCNC3CCC1 (stereo not drawn) | – | inactive: -9.54%
N#Cc1cc2c(nc1SCC(=O)Nc1sc3c(c1C#N)CCC3)CCC2 | – | inactive: -13.4%
COc1cc2c(cc1OC)C(Cc1ccc(O)cc1)N(C)CC2 (stereo not drawn) | inconclusive: 44.7 µM [inhibitor, single point] | –
CN(C)/C=C(\C#N)C(=O)N/N=C/c1ccc(Cl)cc1 | inconclusive: 28.2 µM [inhibitor, partial curve] | –
COCn1c(-c2ccc(OC)c(OC)c2)nc2ccccc21 | inconclusive: 39.8 µM [inhibitor, single point] | –
COC(=O)Nc1sc2nc(C)cc(C)c2c1-n1cccc1 | – | inactive: 2.42%
Nc1cc(S(=O)(=O)O)ccc1O | inconclusive: 39.8 µM [inhibitor, single point] | –
O=C(NC1CSC/C1=N\O)c1ccccc1 (stereo not drawn) | active: 22.4 µM | –
C#CCOCCOCCOCCNc1nc(N2CCN(C(=O)[C@H](Cc3ccc(O)cc3)n3cc([C@@H](N)C(C)CC)nn3)CC2)nc(N2CCN(C(=O)[C@H](Cc3cc4ccccc4[nH]3)n3cc([C@@H](N)C(C)CC)nn3)CC2)n1 (stereo partly drawn) | – | inactive: -3.26%
CCOc1ccc(NCc2nc3ccccc3n2CCOc2ccccc2)cc1 | – | inactive: -13.2%
Cc1ccc(S(=O)(=O)CC(N)=O)cc1 | – | inactive: 16.3%
Cc1nn(Cc2c(Cl)cccc2Cl)c(C)c1NC(=O)CCCn1nc([N+](=O)[O-])c(Cl)c1C | active: 6.31 µM | –
Cc1cccc2cc(CN(CCN(C)C)C(=S)Nc3ccccc3)c(=O)[nH]c12 | inconclusive: 3.55 µM [inhibitor, single point] | –
COc1ccc(C(=O)N/C(=C\c2cn(C)c3ccccc23)C(=O)OCC(C)C)cc1 | inconclusive: 3.16 µM [inhibitor, partial curve] | –
CC(C)CCN1CCNC(=O)C1CC(=O)Nc1ccc(F)cc1 (stereo not drawn) | active: 17.8 µM | –
COc1ccc(CNCC(=O)Nc2ccccc2-n2cccc2)cc1 | active: 28.2 µM | –
CN(C)S(=O)(=O)c1cccc(C(=O)NCc2ccco2)c1 | inconclusive: 39.8 µM [inhibitor, single point] | –
COc1ccc(CNS(=O)(=O)c2cccc(S(=O)(=O)N3CCOCC3)c2)cc1 | inconclusive: 31.6 µM [inhibitor, single point] | –
O=C(CSc1nnnn1C1CCCCC1)Nc1ccccc1F | active: 3.98 µM | –

Reference: PubChem BioAssay AID1030 (National Center for Advancing Translational Sciences (NCATS), 2008)
